Test results reported in ChEMBL document CHEMBL4888484, “Replenishing the malaria drug discovery pipeline: Screening and hit evaluation of the MMV Hit Generation Library 1 (HGL1) against asexual blood stage Plasmodium falciparum ,using a nano luciferase reporter read-out” (2022).
About 540 (0.36%) of roughly 150,000 compounds showed an effect of 50% or more. This is one part of the list.

test system: Plasmodium falciparum; experiment: Primary screen in NF54 nanoGlo assay, in single point, at 2uM, 72h; a lower Z score goes with more inhibition; assay type: functional, Erythrocyte; conditions: timepoint 72 hour

Structure (SMILES)	% Inhibition [%]	Z score
Cc1ccc(=O)n(Cc2nc(C)nn2-c2ccc3nc(C)sc3c2)n1	-7	1.12
Cn1cc(N2C(=O)CN(Cc3ccc(C(F)(F)F)cc3)C2=O)cn1	-12	2.25
C[C@H](NC(=O)c1cccn1C)c1ccc(N2CCCS2(=O)=O)cc1	-8	1.57
O=C(Nc1ccc(N2CCOCC2)cc1)[C@@H]1CCCc2ccccc21	-13	1.29
CN(C)c1ccc(-c2noc(C(=O)Nc3ccccc3)n2)cn1	-10	2.04
OC[C@H]1CCCN(CCCNCc2ccc3cc(O)ccc3c2)C1	-6	0.93
Cc1cc(C)n(CCC(=O)N2CCC(CCc3noc(N(C)C)n3)CC2)n1	-5	0.75
C[C@H](CO)N(C)S(=O)(=O)c1csc2ccc(Cl)cc12	-6	0.98
CC1CCCN(C(=O)NCCc2nccn2Cc2ccccc2)C1C (stereo not given)	-3	0.62
O=S(=O)(c1cccnc1)N(CC(F)(F)F)C1CCOCC1	-5	0.75
Cc1ccc2oc(CN(Cc3cc(F)ccc3F)C(=O)c3ccc(Cl)cc3Cl)nc2c1	-13	2.12
CS(=O)(=O)N1CCC(CC2CC2)(c2noc(-c3ccc(F)cc3)n2)CC1	-5	0.7
CCN1CCN(C(=O)C(=Cc2cccc(F)c2)n2nnnc2C)CC1	-4	0.67
Cc1noc(C)c1CC(=O)Nc1cccc(N2CCCC2=O)c1	-2	0.38
CCCCNC(=O)N(C)C1CCC(CO)CC1 (stereo not given)	2	-0.38
COCCn1nnnc1[C@]1(N2CCCC2)CCN(C(=O)c2ccc(OC)cc2OC)C1	-3	0.39
COCCn1ccc(C(=O)N2CCc3cc(-c4ccccc4)ccc32)n1	-6	1.19
COC(=O)c1ccc(N[C@H]2CCCc3cc(OC(F)F)ccc32)nn1	-10	1.4
Cc1nonc1OCCn1cc(-c2ncc[nH]2)nn1	-9	1.17
COc1ccc(CCOc2nc(-c3cccc(C(F)(F)F)c3)n(-c3ccc(NC(=O)CC(C)C)cc3)n2)cc1	-10	1.85
Cc1nnc(-c2cccc(NC(=O)c3cnoc3-c3ccccc3C(F)(F)F)c2)o1	5	-0.55
O=C(Nc1ccccc1)C1CCN(c2nc(=O)c3cn[nH]c3[nH]2)CC1	-6	1

Structure (SMILES)	% Inhibition [%]	Z score
Cc1nc(-c2ncc(C(=O)N3[C@@H]4CC[C@H]3CN(C)C(=O)C4)c(O)n2)cs1	-7	0.71
Cc1cncn1C1CCN(S(=O)(=O)c2ccc(C(F)(F)F)cc2)CC1	-9	1.87
COc1cccc2c1[C@H](C(=O)NCCS(N)(=O)=O)CC2	-5	0.6
CCOC(=O)c1noc2ncnc(N[C@H]3CCCc4ccccc43)c12	-1	0.12
CCCOCC(=O)NC1c2ccccc2CCC1n1ccnc1 (stereo not given)	-5	0.71
O=C(c1cc2n(n1)CCCO2)N1CC2C3CCC(O3)C2C1 (stereo not given)	7	-1.05
COc1cccc(C(=O)Nc2nn(C)c3ncccc23)c1	-6	0.85
O=C(CCCn1cccn1)NCC[C@H]1CCOC1	-12	1.16
CC1(C)C(=O)NCCN1C(=O)c1cc(Cl)sc1Cl	3	-0.37
O=C(OCc1ccccc1)C(C(=O)OCc1ccccc1)n1c(=O)sc2ccccc21	1	-0.24
Cc1nn(-c2ccc(NC(=O)[C@@H]3CCCO3)cn2)c(C)c1Cl	-13	2.4
O=C1CCc2cc(NC(=O)NC3CCCCC3)ccc2N1	-6	1.07
CCc1c(C(=O)N2CC(C)N(C)CC2C)[nH]c(C)c1C(N)=O (stereo not given)	2	-0.32
Cc1ccc([C@H](C)NC(=O)CCN2CCCCCCC2)cn1	-3	0.48
Cc1ccccc1OCC(=O)O[C@@H](C)C(=O)N1CCCc2ccccc21	-5	0.92
O=C(C[C@H]1CCC(=O)N(Cc2ccccc2)CC1)NC1CCN(Cc2ccccc2)CC1	31	-0.69
CCNc1cc(N2CCC[C@H](CCC(=O)N3CCN(C(=O)c4ccco4)CC3)C2)ncn1	-7	1.31
COCC(CCO)NC1C=Cc2ccccc2OC1 (stereo not given)	-1	0.25
CN(C)c1ccc([C@](O)(CC#N)C(F)(F)F)cc1	-5	0.9
Cc1ccc(C(=O)NC[C@@H](CO)C2CC2)c2c1CCC2	5	-0.93
COc1ccc(-c2cccc3c2CCN(C(=O)CC(C)C)[C@@H]3C)cc1	-13	1.63
Cc1ccc(CN2CCCN(C(=O)[C@@H]3Cc4ccccc4C(=O)O3)CC2)cc1	-11	2.11

Structure (SMILES)	% Inhibition [%]	Z score
COc1ccc(/C=C/CN2CC[C@](C)(O)[C@H](C)C2)cc1	-6	0.96
CC(C)C[C@H]1C(=O)NCCCN1C(=O)c1cn(C)cn1	5	-0.92
Cn1ncc(Cl)c1[C@@H]1CCCCCN1C(=O)c1cccs1	-10	0.9
COC(=O)c1cc(C)nc2onc(-c3ccc(F)cc3)c12	-22	2.62
O=C(NCc1c(F)cc(Br)cc1F)NCC(F)F	-1	0.16
COC(=O)C1CCN(C(=O)NC(C)CCc2cccn2C)CC1C (stereo not given)	5	-0.69
CC1CCN(c2ncc3c(=O)n(CC(=O)Nc4ccc(Cl)cc4)cnc3n2)CC1	-10	1.11
O=C(NCCCc1ccccc1)c1nn(Cc2ccncc2)c2c1CN(C(=O)c1ccncc1)CC2	-1	0.17
O=C(O)c1cc2sccc2nc1C(F)(F)F	-18	2.03
CCN(C)C(=O)C(C)C(N)c1ccccc1 (stereo not given)	-7	1.02
Cc1cccc2c(N3CCC4(CCOCC4)CC3)ncnc12	-5	0.76
Cc1cccc(CN2C(=O)OC(c3ccc(NC(=O)c4cccs4)cc3)C2C(=O)NCC2CCCO2)c1 (stereo not given)	2	-0.24
Cc1nc(C(=O)N2CCN([C@H](C#N)C3CCCCC3)CC2)cs1	-23	2.75
CNC(=O)CN1CCN(C(=O)N2CCC(C)CC2)CC1	-18	2.36
CC(C)Oc1ccc(C2CC(=O)N(c3cccc(N4C(=O)CC(c5ccc(OC(C)C)cc5)C4=O)c3)C2=O)cc1 (stereo not given)	-7	0.93
CCOc1ccc(N(C)CCNS(C)(=O)=O)cc1	-13	1.57
CCN(CC)C(=O)N1CCC(c2nc(-c3ccncc3)cs2)CC1	-11	1.98
Cc1cccc2c(NCC(C)(C)CCS(C)(=O)=O)c(C#N)cnc12	7	-1.36
CS(=O)(=O)Nc1ccc(-n2nnn(CC(=O)NC3CC3)c2=O)cc1	-6	1.22
O=C(NC1CC1)c1cc(NS(=O)(=O)c2ccc(C3CCCCC3)cc2)cnc1N1CCNCC1	-11	1.81
COc1cccc2sc(OC3CN(C(=O)c4ccn(C)n4)C3)nc12	-7	1.18
COc1cc(CCc2ncnn2CCO)ccc1C	-13	1.74

Structure (SMILES)	% Inhibition [%]	Z score
Cc1cc(C)nc(CN(C)CCC(=O)Nc2ccccc2C(C)C)c1	-16	2.3
Cn1ccc(CCNC(=O)N2CCC[C@@H](CN3CCOCC3)C2)n1	-17	3.19
COc1ccc(Br)cc1CN1CCC[C@H]1c1cc(C(C)C)no1	2	-0.24
CCC1(c2ccccc2)CN(C(=O)c2c(C)nn(C)c2Cl)C1	0	0.02
Cn1c(=O)ccc2ccc3ccccc3c21	-11	1.42
CC1CCCCC1N(C)Cc1nccn1C(F)F (stereo not given)	-13	1.14
N#Cc1cc2c([nH]c1=O)CCN(C(=O)c1ccc(OC(F)(F)F)cc1)C2	-9	1.46
Cc1ccc(COC(=O)Cn2nnc3ccccc32)cc1	12	-0.97
Cc1cc(=O)c2ccccc2n1CC(=O)N1CC[C@H](Cc2ccc(CO)cc2)C1	-9	1.46
CCCN(CC#Cc1ccccc1)Cc1cc(C#CCO)cs1	0	-0.05
C[C@@H](C(=O)N1CCN(c2cccc(C(F)(F)F)c2)CC1)n1nc(-n2cccn2)ccc1=O	3	-0.55
CC(C)CC(C)N(C(=O)CCC1CCCO1)c1ccc2[nH]ccc2c1 (stereo not given)	7	-1.01
Cc1ocnc1C(=O)[C@H](C#N)C(=O)Nc1ccc(F)c(Cl)c1	30	-3.83
CS(=O)(=O)c1cccc2sc(N(CCN3CCOCC3)C(=O)c3cnccn3)nc12	7	-1.1
CCCc1nc(CNS(=O)(=O)N2CCN(C)CC2)cs1	-8	1.01
C[C@H]1CN(Cc2nc3c(s2)CCC3)C(C)(C)CO1	5	-0.52
CC(=O)N1N=C(c2ccc3ccccc3c2)O[C@H]1c1ccncc1	2	-0.21
Cn1c(=O)c2c([C@H]3C(=O)Nc4ccccc43)c(-c3ccc(Br)cc3)[nH]c2n(C)c1=O	-2	0.16
CC1CCN(c2nnc(C(=O)Nc3cccc(Cl)c3)c3ccccc23)CC1	-8	1.29
